Results from patent US5827073A, “Photoreactive peptide derivatives” (Ludwig Institute for Cancer Research, priority 1995, dated 1998).

Test system: HLA-A1
Experiment: HLA-A1 photoaffinity labelling of HLA-A1 transfected C1R cells with radioiodinated peptide derivative
Format: binding, human
Settings: densitometry
Protocol: All photoaffinity labelling procedures were performed essentially as described by Luescher et al., J. Immunol., 148:1003-011 (1992); Luescher et al., Nature, 351:72-74 (1991); Romero et al., J. Exp. Med., 177:1247-1256 (1993); Luescher et al., J. Biol. Chem., 269:5574-5592 (1994); and Romero et al., J. Immunol. Methods, 171:73-84 (1994). Briefly, HLA-A1 transfected C1R cells, cultured in hygromycin containing medium, or other cell types were resuspended in DMEM medium supplemented with 0.5% fetal calf serum, 10 mM HEPES and 0.25 μg/ml human β2-microglobulin, or as specified, at 6 ×10^6 cells/ml. […]
After UV irradiation with a 15 W mercury fluorescence lamp with an emission maximum at 365 nm and a band width of 80 nm for 4 minutes at a lamp-sample distance of 2 cm, the cells were washed 4 times with DMEM containing 2% calf serum and 1 time with PBS. […] Immunoprecipitation of HLA molecules with immobilized W6/32 mAb (Brodsky et al., J. Immunol., 128:129-135 (1982) and SDS-PAGE analysis of the immunoprecipitate were performed as described by Luescher et al., Electrophoresis, 8:508 (1987). The gels were evaluated by autoradiography and in some experiments by densitometry as described by Luescher et al., J. Immunol., 148:1003-1011 (1992). Each labelling experiment was performed at least twice. […]

Glu Ala Asp Pro Thr Gly Xaa Ile [SEQ ID NO: 7, MAGE-1 peptide derivative as printed]
increase of binding to C1R/A1-associated HLA-A1 (presence of excess exogenous human β2-microglobulin): 3.3 fold | increase of binding to C1R/A1-associated HLA-A1 (reduced temperature (26° C. vs 37° C.)): 2.3 fold
